According to publication PMC2538545:
Results are given in words; binding and its absence hold for the method and conditions named. Binding seen in cells or lysates may run through a third protein. Some entries that bind do so weakly or less than the wild type. For part of these data: Tags and fused reporters may be left off the sequences shown.

Protein sequences, listed by entry. Tags and fused reporters are not part of them. Lines headed by an entry give the natural chain unless they say otherwise; changes in a name come on top. Chains listed by the source or under a name are the forms on record and can include a tag or linker.
Tm5NM-1-(His)6 (P06753-2, form named): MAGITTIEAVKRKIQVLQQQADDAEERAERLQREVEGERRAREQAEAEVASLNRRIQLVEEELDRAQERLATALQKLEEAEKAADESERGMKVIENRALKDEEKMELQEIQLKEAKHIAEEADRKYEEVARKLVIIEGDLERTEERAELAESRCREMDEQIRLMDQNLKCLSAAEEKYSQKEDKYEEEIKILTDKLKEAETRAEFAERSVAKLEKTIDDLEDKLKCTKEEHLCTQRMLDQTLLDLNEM

What was measured:
[1] = target: endogenous Tm5NM-1 of COS-7 cells (African green monkey (endogenous in COS-7)); experiment: co-IP; COS-7 cells transfected with TTC9A-flag; 500 ug lysate precipitated with anti-Tm5NM-1 antibody (Chemicon) and protein A/G plus-agarose, goat pre-immune serum as control; anti-flag blot
GST-TTC9A (human) = GST-TTC9A (human) (UniProt Q92623); experiment: pull-down; GST-TTC9A or GST (60 ug; also 2 or 20 ug) immobilised on Glutathione Sepharose 4B; 300 ug lysate of transfected COS-7 cells, overnight at 4 C in PBS; anti-His blot; only the target purified
[2] = target: T1, flag-TTC9A (51–222) (human) (UniProt Q92623); experiment: co-IP; COS-7 cells co-transfected with flag-TTC9A or its fragments and Tm5NM-1-(His)6; 400 ug lysate on anti-flag M2 Affinity Gel overnight at 4 C; anti-His blot
T1 sequence: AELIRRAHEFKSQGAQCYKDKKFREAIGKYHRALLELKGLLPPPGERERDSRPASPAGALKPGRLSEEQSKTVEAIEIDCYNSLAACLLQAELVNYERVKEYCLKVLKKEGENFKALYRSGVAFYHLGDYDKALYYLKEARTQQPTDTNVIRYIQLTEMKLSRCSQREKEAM

[3] = target: T2, flag-TTC9A (1–105) (human) (UniProt Q92623); experiment: as above
T2 sequence: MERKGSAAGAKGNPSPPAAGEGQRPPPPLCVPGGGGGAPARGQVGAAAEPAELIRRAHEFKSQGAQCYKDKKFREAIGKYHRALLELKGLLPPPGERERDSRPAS

[4] = target: T3, flag-TTC9A (51–115) (human) (UniProt Q92623); experiment: as above
T3 sequence: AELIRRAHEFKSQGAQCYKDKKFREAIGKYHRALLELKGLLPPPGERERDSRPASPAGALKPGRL

[5] = target: T4, flag-TTC9A (1–161) (human) (UniProt Q92623); experiment: as above
T4 sequence: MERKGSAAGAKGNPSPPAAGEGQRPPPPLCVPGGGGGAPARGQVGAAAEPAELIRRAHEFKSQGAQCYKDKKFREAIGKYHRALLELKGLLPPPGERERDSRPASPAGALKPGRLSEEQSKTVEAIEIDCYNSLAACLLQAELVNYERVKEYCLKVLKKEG

[6] = target: T5, flag-TTC9A (1–197) (human) (UniProt Q92623); experiment: as above
T5 sequence: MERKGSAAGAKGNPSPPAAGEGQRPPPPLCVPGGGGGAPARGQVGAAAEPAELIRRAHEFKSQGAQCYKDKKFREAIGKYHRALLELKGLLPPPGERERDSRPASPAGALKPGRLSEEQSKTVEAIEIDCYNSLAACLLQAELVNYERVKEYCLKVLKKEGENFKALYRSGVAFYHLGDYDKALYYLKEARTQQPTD

[7] = target: T6, flag-TTC9A (1–95) (human) (UniProt Q92623); experiment: as above
T6 sequence: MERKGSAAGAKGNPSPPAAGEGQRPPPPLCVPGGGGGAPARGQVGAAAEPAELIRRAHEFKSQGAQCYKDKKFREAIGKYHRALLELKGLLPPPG

[8] = target: TTC9A-flag (full length TTC9A) (human) (UniProt Q92623); experiment: as above
[9] = target: T7, flag-TTC9A (1–70) (human) (UniProt Q92623); experiment: as above
T7 sequence: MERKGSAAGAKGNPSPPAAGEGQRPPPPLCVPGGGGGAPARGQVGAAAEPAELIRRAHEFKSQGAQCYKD

[10] = target: T8, flag-TTC9A (1–100) (human) (UniProt Q92623); experiment: as above
T8 sequence: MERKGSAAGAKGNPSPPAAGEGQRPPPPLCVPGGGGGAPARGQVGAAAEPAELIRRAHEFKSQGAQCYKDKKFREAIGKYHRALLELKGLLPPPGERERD

[11] = target: T9, flag-TTC9A (1–115) (human) (UniProt Q92623); experiment: as above
T9 sequence: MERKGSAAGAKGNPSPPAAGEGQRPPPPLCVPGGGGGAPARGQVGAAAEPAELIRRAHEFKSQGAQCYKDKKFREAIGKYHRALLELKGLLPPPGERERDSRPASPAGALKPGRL

[12] = target: T10, flag-TTC9A (1–50) (human) (UniProt Q92623); experiment: as above
T10 sequence: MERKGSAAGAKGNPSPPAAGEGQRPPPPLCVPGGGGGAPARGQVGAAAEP

[13] = target: T11, flag-TTC9A (1–128) (human) (UniProt Q92623); experiment: as above
T11 sequence: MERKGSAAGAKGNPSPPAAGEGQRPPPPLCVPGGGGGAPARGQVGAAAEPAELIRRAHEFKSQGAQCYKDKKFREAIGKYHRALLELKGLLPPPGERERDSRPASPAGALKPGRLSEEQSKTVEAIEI

[14] = target: T12, flag-TTC9A (1–110) (human) (UniProt Q92623); experiment: as above
T12 sequence: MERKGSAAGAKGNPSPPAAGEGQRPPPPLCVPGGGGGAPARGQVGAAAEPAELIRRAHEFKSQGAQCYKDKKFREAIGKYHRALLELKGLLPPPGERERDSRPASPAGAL

binding [1] | binding (GST-TTC9A (human)) | binding [2] | binding [3] | binding [4] | binding [5] | binding [6] | binding [7] | binding [8] | binding [9] | binding [10] | binding [11] | binding [12] | binding [13] | binding [14] | Substance
binds |  |  |  |  |  |  |  |  |  |  |  |  |  |  | TTC9A-flag (full length TTC9A) (from UniProt Q92623 1-222)
 | binds | no binding | binds | binds | binds | binds | binds | binds | no binding | binds | binds | no binding | binds | binds | Tm5NM-1-(His)6 (from UniProt P06753-2 1-248)
